# PubChem BioAssay AID504333 (National Center for Advancing Translational Sciences (NCATS), 2011)
# Values joined by “and” are separate entries in the source; they are usually repeats but may differ in a detail not shown here. Equal values may be shown once. Out of some 360,000 compounds screened, about 16,000 (4.4%) were called active. The inconclusive results got no clear call from the source; some entries with a clear call stand among them for comparison. The call rests on the fitted dose curve; in most records, active means well fitted inhibition curve with a large enough effect; inconclusive means small, poorly fitted or top-dose-only effect; inactive means no such curve, though single readings can be large or run the other way. Potencies beside an inconclusive call are fits to weak or partial responses and may not hold up.
# Biological target: Bromodomain adjacent to zinc finger domain protein 2B (Homo sapiens) (UniProt Q9UIF8)
# Experiment: qHTS Assay for Inhibitors of BAZ2B; further: nearly all actives have a fitted effect of over 60% in size
# Conditions: AlphaScreen BAZ2B-H3K14Ac peptide displacement; series mostly up to 114 µM
# Method in brief: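 Protein-peptide AlphaScreen: BAZ2B 50 nM, b-H3K14Ac 50 nM, 1x PBS pH 7.4 + 0.01% Tween-20. Preincubation 30 min RT; cpd 30 min RT (top 110 uM); beads 20 min RT, light-protected.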
# Potency means the concentration at half of the fitted maximal effect; tags describe the fitted curve by direction and shape.
# Chain of UniProt Q9UIF8 (Q9UIF8 whole entry, looked up, the tested form may be a part): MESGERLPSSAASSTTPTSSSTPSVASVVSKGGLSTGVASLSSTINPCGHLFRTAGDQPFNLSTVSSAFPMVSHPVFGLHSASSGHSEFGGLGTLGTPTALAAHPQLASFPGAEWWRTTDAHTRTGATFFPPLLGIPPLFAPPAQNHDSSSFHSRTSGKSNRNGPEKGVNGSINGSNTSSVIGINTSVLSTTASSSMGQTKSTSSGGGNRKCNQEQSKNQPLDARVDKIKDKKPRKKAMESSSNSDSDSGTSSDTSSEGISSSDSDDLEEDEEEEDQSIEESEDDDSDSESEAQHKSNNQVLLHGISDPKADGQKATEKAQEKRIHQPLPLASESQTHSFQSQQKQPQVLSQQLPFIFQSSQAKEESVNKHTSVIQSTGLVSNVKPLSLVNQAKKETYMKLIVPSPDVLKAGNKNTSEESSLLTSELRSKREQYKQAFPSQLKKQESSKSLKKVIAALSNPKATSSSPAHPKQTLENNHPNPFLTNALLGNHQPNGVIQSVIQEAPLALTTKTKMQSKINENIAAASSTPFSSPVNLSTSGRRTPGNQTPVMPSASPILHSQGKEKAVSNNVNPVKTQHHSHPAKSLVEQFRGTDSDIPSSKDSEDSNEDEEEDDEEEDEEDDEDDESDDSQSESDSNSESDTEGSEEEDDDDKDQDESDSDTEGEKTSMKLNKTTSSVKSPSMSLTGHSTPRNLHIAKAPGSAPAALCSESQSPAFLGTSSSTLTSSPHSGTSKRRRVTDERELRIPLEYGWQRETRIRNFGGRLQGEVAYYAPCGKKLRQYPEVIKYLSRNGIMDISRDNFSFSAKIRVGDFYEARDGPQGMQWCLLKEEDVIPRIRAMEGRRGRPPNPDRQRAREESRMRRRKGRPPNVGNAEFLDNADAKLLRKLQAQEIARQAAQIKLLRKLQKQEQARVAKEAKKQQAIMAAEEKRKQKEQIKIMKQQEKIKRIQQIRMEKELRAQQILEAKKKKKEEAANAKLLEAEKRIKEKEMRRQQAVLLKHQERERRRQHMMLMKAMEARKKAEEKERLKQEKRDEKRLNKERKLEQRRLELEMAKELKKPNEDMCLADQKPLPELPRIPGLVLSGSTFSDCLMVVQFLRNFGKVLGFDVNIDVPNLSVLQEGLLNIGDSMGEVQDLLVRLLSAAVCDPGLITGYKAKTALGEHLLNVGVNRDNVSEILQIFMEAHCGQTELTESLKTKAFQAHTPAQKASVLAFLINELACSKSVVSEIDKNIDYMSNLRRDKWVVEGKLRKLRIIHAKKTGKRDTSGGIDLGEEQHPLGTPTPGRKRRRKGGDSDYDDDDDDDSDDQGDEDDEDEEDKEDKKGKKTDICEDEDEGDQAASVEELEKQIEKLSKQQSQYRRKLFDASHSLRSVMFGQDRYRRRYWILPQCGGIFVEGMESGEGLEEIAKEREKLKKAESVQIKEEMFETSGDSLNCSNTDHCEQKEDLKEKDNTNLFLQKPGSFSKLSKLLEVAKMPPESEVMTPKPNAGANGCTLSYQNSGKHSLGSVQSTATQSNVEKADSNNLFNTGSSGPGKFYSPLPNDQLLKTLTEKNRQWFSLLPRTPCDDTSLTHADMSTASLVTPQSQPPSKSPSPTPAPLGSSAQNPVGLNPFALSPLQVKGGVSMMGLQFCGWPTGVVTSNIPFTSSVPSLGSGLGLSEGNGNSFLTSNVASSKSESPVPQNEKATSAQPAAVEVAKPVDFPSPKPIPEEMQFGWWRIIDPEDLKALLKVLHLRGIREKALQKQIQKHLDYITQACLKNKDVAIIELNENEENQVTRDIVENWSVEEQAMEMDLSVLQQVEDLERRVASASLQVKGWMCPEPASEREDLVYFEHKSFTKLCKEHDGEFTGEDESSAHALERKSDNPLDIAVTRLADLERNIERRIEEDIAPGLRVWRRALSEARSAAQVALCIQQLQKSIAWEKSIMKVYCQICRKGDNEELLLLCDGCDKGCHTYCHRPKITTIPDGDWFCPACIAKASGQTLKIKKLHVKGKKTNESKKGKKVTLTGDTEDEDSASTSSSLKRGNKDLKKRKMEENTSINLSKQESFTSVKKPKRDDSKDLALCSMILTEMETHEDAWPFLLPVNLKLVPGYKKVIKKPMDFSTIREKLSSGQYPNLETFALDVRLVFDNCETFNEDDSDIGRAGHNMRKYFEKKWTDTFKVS
row,SMILES,Potency
1,CCOC(=O)c1c(NC(C)=O)sc2c1CCC(C=O)=C2Sc1ccccc1,"inconclusive: 39.8 µM [inhibitor, full curve, poor fit]"
2,FC(F)(F)c1nc(NCc2cccnc2)c2ccccc2n1,"inconclusive: 89.1 µM [inhibitor, single point]"
3,COc1nnc(-c2ccc(N3CCOCC3)c(NC(=O)c3ccc(C)cc3)c2)c2ccccc12,"inconclusive: 89.1 µM [inhibitor, partial curve]"
4,CCCn1c(-c2ccc(S(=O)(=O)N3CCOCC3)cc2)csc1=Nc1ccc(OCC)cc1,"inconclusive: 2.82 µM [inhibitor, full curve]"
5,COc1ccc(OC)c(NC(=O)N2CCN(S(=O)(=O)c3ccc4c(ccn4C)c3)CC2)c1,"inconclusive: 31.6 µM [inhibitor, full curve]"
6,Cc1ccc(C)c(N2CCN(C3CCCCC3NS(=O)(=O)c3ccccc3)CC2)c1 (configuration not stated),"inconclusive: 25.1 µM [inhibitor, single point]"
7,N#CC1=C(SCC(N)=O)NC2=C(C(=O)c3ccccc32)C1c1ccc(Cl)cc1 (configuration not stated),inactive
8,COc1ccc(N2CCN(Cc3ccc(Br)s3)CC2)cc1,active: 17.8 µM
9,C=CCOC(=O)C(C#N)c1nc2ccccc2nc1N1CCN(c2ccccc2OC)CC1 (configuration not stated),"inconclusive: 8.91 µM [inhibitor, full curve]"
10,CC(C)(C)N(Cc1ccccc1)C(=O)COC(=O)CCc1c[nH]c2ccccc12,"inconclusive: 70.8 µM [inhibitor, single point]"
11,Cc1ccc(NS(=O)(=O)c2ccc(C)c(NC(=O)COc3ccc4ccccc4c3)c2)c(C)c1,"inconclusive: 70.8 µM [inhibitor, single point]"
12,N#Cc1c(N)oc(-c2ccco2)c1-c1ccco1,"inconclusive: 44.7 µM [inhibitor, partial curve]"
13,CN(Cc1ccccc1)c1ccc(C(CC(N)=O)NC(=O)c2ccc(Br)cc2)cc1[N+](=O)[O-] (configuration not stated),"inconclusive: 10 µM [inhibitor, full curve]"
14,CC(C)CC(=O)N1CCC(N(CCc2ccccc2)Cc2ccccc2)CC1,active: 50.1 µM
15,N#C/C(=C(/O)CCCl)c1ccccn1,"inconclusive: 79.4 µM [inhibitor, partial curve]"
16,Cc1ccc(Nc2nnc(-c3ccc(N4CCOCC4)c([N+](=O)[O-])c3)c3ccccc23)cc1,"inconclusive: 22.4 µM [inhibitor, full curve, poor fit]"
17,Cc1ccc(Nc2c(-c3ccncc3)nc3ccc(C)cn23)cc1,inactive
18,COc1ccc(NS(=O)(=O)c2c(C(=O)N3CCCCCC3)c(C)n(C)c2C)cc1,"inconclusive: 89.1 µM [inhibitor, single point]"
19,CCn1nc(C)c(/C=N/NC(=O)c2ccc3c(c2)c(C)c(C)n3Cc2ccccc2)c1C,"inconclusive: 28.2 µM [inhibitor, full curve]"
20,COc1ccc(CN2C(=O)CN=C2Nc2cccc(C)c2C)cc1,"inconclusive: 56.2 µM [inhibitor, partial curve, poor fit]"
21,Cc1cc(C)cc(NC(=O)CCc2c(C)nn(-c3ccc(N4CCCC4)nn3)c2C)c1,"inconclusive: 28.2 µM [inhibitor, full curve]"
22,Nc1n[nH]c(N)c1N=Nc1ccc(Cl)cc1Cl,active: 31.6 µM
23,O=C(Nc1ccccc1Cl)/C(Cl)=C(\Cl)S(=O)c1ccccc1 (configuration not stated),"inconclusive: 35.5 µM [inhibitor, full curve, poor fit]"

row,SMILES,Potency
1,Cc1ccc(-c2csc(N=C(N)N)n2)cc1,"inconclusive: 44.7 µM [inhibitor, partial curve]"
2,O=C(NCCc1c[nH]c2ccccc12)C(=O)c1c[nH]c2ccccc12,"inconclusive: 44.7 µM [inhibitor, partial curve]"
3,CCCc1cc(=O)[nH]c2nnc(SCC(=O)Nc3nccs3)n12,inactive
4,CCOc1ccc(-c2cc(OC(=O)c3ccccc3)c3c(C)oc(C)c3c(=O)c2)cc1,active: 35.5 µM
5,Cc1nnc(N/N=C/c2c[nH]c3ccccc23)[nH]c1=O,"inconclusive: 3.98 µM [inhibitor, single point]"
6,CCC1Sc2ccc(S(=O)(=O)CCC(=O)Nc3ccc(C(=O)OC)cc3)cc2NC1=O (configuration not stated),"inconclusive: 79.4 µM [inhibitor, single point]"
7,CNc1ccccc1C(C)(C)c1cn(-c2ccc([N+](=O)[O-])cc2)nn1,"inconclusive: 89.1 µM [inhibitor, single point]"
8,Cc1ccc(NC2CCCN(C(=O)c3ccc(-n4ccnc4)cc3)C2)cc1C (configuration not stated),"inconclusive: 63.1 µM [inhibitor, partial curve, poor fit]"
9,CN1CCN(S(=O)(=O)c2ccc(C(=O)Nc3ccccc3)cc2)CC1,"inconclusive: 89.1 µM [inhibitor, single point]"
10,O=C(CSc1ccc2ccccc2n1)c1ccccc1,inactive
11,NC(Cc1ccc(O)c([N+](=O)[O-])c1)C(=O)O (configuration not stated),active: 50.1 µM
12,Cc1cccc2c(N=Nc3ccc(S(=O)(=O)Nc4cccc(Cl)c4)cc3[N+](=O)[O-])c(O)[nH]c12,inactive
13,CCOC(=O)c1[nH]nc(-c2c(O)cc(C)cc2O)c1-c1csc(C)n1,"inconclusive: 89.1 µM [inhibitor, single point]"
14,CSc1cccc(N2CC(C(=O)Nc3cccc(S(=O)(=O)N4CCCC4)c3)CC2=O)c1 (configuration not stated),"inconclusive: 79.4 µM [inhibitor, single point]"
15,CCN1C(=O)C(CC(=O)Nc2ccc(OC)cc2)N(CCCN2CCN(c3ccc(OC)cc3)CC2)C1=S (configuration not stated),active: 31.6 µM
16,Oc1ccc(-c2nccc(-c3ccc(F)cc3)n2)cc1,"inconclusive: 89.1 µM [inhibitor, partial curve]"
17,Cc1ccnc(NC(=O)CC(c2ccccc2)c2ccccc2)n1,"inconclusive: 79.4 µM [inhibitor, partial curve, poor fit]"
18,CC(=O)Oc1ccc(/C=N\NC(=O)c2cc3c(ccc4ccccc43)o2)cc1,"inconclusive: 79.4 µM [inhibitor, partial curve]"
19,O=C(CCCCCn1c(SCc2ccncc2)nc2ccccc2c1=O)NCc1ccco1,active: 50.1 µM
20,CCOC(=O)/C(C(=O)Nc1ccc(Br)cc1)=C1/NC(C)(C)Cc2ccccc21,"inconclusive: 35.5 µM [inhibitor, partial curve]"
21,Nc1ccc(C(=O)N2CCN(S(=O)(=O)/C=C/c3ccccc3)CC2)cc1[N+](=O)[O-],"inconclusive: 79.4 µM [inhibitor, single point]"
22,CCC(CC)c1nnc(NC(=O)C2=NNC(=O)CC2)s1,"inconclusive: 89.1 µM [inhibitor, single point]"
23,COc1ccc(-c2nc(Cn3c(SCc4ccc(C)cc4)nc4cccnc43)c(C)o2)cc1OC,"inconclusive: 39.8 µM [inhibitor, partial curve]"

row,SMILES,Potency
1,CC(C)(C)n1cnc2cc(NCc3ccccc3O)ccc21,"inconclusive: 79.4 µM [inhibitor, single point]"
2,O=C(OCC(O)COC(=O)c1cccnc1)c1cccnc1,inactive
3,C=CCN1C(=O)c2ccc(C(=O)NCCOc3ccccc3F)cc2C1=O,inactive
4,COc1ccc(CNC(=O)c2ccccc2SCC(=O)NCc2ccco2)cc1,inactive
5,N#CCC(=O)Nc1ccc(C(=O)NNC(=O)CCN2CCN(c3ccccc3)CC2)cc1,"inconclusive: 39.8 µM [inhibitor, partial curve]"
6,CCOc1cccc(-c2c(C(=O)N/N=C(\C)c3cccnc3)nnn2-c2nonc2N)c1,"inconclusive: 89.1 µM [inhibitor, single point]"
7,CCc1ccc(/C=C/C(=O)c2cc(Br)ccc(=O)c2O)cc1,active: 44.7 µM
8,CCN1CCN(c2ncnc3sc4c(c23)CCC(C)C4)CC1 (configuration not stated),inactive
9,CC(NC(=O)c1ccccc1)C(=O)NNC(=O)c1ccccc1Cl (configuration not stated),inactive
10,O=S(=O)(c1ccccc1)c1nc(-c2ccc(Cl)cc2Cl)oc1N1CCCCCC1,"inconclusive: 3.16 µM [inhibitor, full curve, poor fit]"
11,CC(C)c1ccc(CN(C)CC(O)c2ccccc2)cc1 (configuration not stated),active: 89.1 µM
12,Cc1ccc(OCCCNC2CCCC2)cc1,"inconclusive: 89.1 µM [inhibitor, single point]"
13,Cc1ccsc1/C=C1\SC(=S)N(CC2CCCO2)C1=O (configuration not stated),active: 10 µM
14,CCN1C(=NCCCCO)N[C@@H](c2cccc(C(F)(F)F)c2)C(C(=O)OC)=C1C,"inactive and inconclusive: 89.1 µM [inhibitor, single point]"
15,CC(C)CC(NC(=O)c1ccccc1)C(=O)N/N=C/c1ccco1 (configuration not stated),"inconclusive: 79.4 µM [inhibitor, single point]"
16,CC(C)c1ccc(CNc2nc(-c3ccco3)nn2S(=O)(=O)c2ccc3ccccc3c2)cc1,"inconclusive: 79.4 µM [inhibitor, single point]"
17,CCCS(=O)(=O)c1ncc(Cl)c(C(=O)Nc2scc(-c3ccccc3)c2C(=O)OCC)n1,"inconclusive: 7.08 µM [inhibitor, full curve]"
18,CNC(=S)N/N=C(\C)c1cccc([N+](=O)[O-])c1,active: 50.1 µM
19,C=CCn1c(P(=O)(O)c2ccccc2)nc2ccccc21,"inconclusive: 28.2 µM [inhibitor, single point]"
20,CC(NS(=O)(=O)c1ccccc1)C(=O)NCc1ccco1 (configuration not stated),"inconclusive: 89.1 µM [inhibitor, single point]"
21,O=C(NCc1ccco1)c1cc([N+](=O)[O-])ccc1N1CCCCC1,"inconclusive: 56.2 µM [inhibitor, partial curve]"
